# Measurements reported in the supplement of paper PMC3334620.
# The full ranking holds about 33,000 sequences; the median of “E-score (-0.5 to 0.5)” is about -0.041, and the highest 2% start at about 0.37. The list shows a part of the results.
# Target: T1, Ecm22 (UniProt Q05958)
# T1 sequence: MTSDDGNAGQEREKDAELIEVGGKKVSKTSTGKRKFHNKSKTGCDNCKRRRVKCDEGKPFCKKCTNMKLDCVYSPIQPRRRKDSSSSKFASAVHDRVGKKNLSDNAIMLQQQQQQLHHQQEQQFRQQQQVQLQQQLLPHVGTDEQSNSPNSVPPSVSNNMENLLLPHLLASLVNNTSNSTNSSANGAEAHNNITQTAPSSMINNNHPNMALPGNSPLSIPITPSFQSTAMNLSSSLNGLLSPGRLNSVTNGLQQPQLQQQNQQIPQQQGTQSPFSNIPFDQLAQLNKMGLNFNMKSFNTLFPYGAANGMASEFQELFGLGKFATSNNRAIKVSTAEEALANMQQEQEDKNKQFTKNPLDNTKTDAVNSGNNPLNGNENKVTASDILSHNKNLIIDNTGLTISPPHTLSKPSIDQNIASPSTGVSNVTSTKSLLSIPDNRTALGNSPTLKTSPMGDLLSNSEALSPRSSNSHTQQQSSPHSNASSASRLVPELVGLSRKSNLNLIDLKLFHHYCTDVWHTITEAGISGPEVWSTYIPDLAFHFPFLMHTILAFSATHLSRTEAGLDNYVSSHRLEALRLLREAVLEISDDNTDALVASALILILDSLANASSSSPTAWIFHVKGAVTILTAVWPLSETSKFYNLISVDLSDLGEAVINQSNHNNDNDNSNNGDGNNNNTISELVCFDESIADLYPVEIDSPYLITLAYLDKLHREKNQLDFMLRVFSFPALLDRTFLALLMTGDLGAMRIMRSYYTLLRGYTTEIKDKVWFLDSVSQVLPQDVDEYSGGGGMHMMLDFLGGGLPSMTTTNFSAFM
# Assay: PBM E-score (8-mer binding enrichment) (E-score (-0.5 to 0.5)); higher = stronger / more preferred TF binding; most listed sequences are background and not binding sites
# Details: protein concentration: 200 nM; construct: GST-full length
# Method in brief: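 Each ungapped eight-base word and its reverse complement, pooled, received an E-score from the Universal PBM Analysis Suite. Underlying scans, normalised with masliner, recorded fluorescent anti-GST bound to GST-tagged yeast transcription factors. These were applied at about 100-200 nM to universal all-10-mer Agilent arrays double-stranded by primer extension.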
row,Sequence,PBM E-score
1,GAACCTCC,0.0557
2,ATTAAACA,-0.163
3,AATATCTA,-0.0604
4,ACTGAATG,0.0422
5,CGCCTACG,0.0616
6,GGAACCTA,-0.204
7,AATAATCT,-0.0495
8,ATTAGGCG,0.0612
9,TGACCAAA,-0.0982
10,ATGAACGA,0.453
11,CACCTCAA,-0.0825
12,CCCTAGGG,-0.321
13,ATGACATC,-0.0503
14,AAAGACCA,-0.188
15,CTTGCCAA,-0.0729
16,TTCAGGAA,0.0542
17,CACATGCC,-0.266
18,ACTCGCAT,0.319
19,CTTGGGGA,-0.171
20,GTTAGATA,-0.0169
21,CCGTAAGG,-0.0224
22,TGACAACA,-0.0795

row,Sequence,PBM E-score
1,ACTAGGCC,-0.2
2,AGTAAAGG,-0.158
3,AGAGGTGG,-0.209
4,GAGCAGAC,0.0159
5,CACGCGAG,0.253
6,AAGGTTAG,-0.271
7,CGATCAGC,0.09
8,AGATCCCG,0.127
9,GGCCAGTA,-0.0345
10,CAGGGCCC,-0.219
11,CGTATTTA,0.369
12,AGGCTACA,-0.293
13,ACTCTCAA,-0.137
14,CCTTACCA,-0.277
15,CCAGCACC,-0.186
16,ACTTAAAG,-0.25
17,ACCACCCC,-0.127
18,AATGTTAT,-0.143
19,CACCTCTA,-0.0462
20,CTGTTAAC,0.136
21,CAACGCCC,-0.143
22,TAAACAAA,0.114

row,Sequence,PBM E-score
1,CGGCTTGA,-0.0278
2,CGCTGCTC,-0.0896
3,CCTTAATC,-0.203
4,AAATTCGC,0.128
5,CTACAATC,0.0261
6,ATCGCGTG,0.141
7,CAATACAG,-0.0911
8,CCGACAGG,0.0786
9,CGGATATA,0.256
10,CTTTGGAA,-0.199
11,AACAACAT,0.0857
12,GCGCTTAC,-0.00017
13,CACCCGCA,-0.177
14,AGATTTTG,-0.18
15,CACAGAGC,-0.11
16,GACATAAC,-0.0145
17,AGTGTAGG,-0.116
18,TGCGGACA,0.139
19,GGGCTACA,-0.169
20,ACTCAAGT,-0.0385
21,AACCTATG,-0.187
22,AGCTTAAA,0.0659

row,Sequence,PBM E-score
1,CGGTAAGC,0.0307
2,CCGCAAGC,-0.185
3,GTCGCGAC,0.293
4,CACGTGCA,-0.123
5,CTTAGCAA,0.00503
6,GAAATTCA,0.0712
7,ACTGATTC,-0.126
8,AGAACATC,-0.212
9,ACAAAGGC,0.0895
10,AATGTGCG,0.222
11,AACGTGCC,-0.0231
12,CTAACTTC,0.0104
13,GGCACTGA,0.0137
14,AGCTTCTG,-0.0971
15,GGACCTCA,-0.206
16,GCTTCAAA,-0.0223
17,ATGAGGGC,-0.125
18,GTGAGCAA,-0.00052
19,GCGATGCC,0.216
20,GAGTCAGC,-0.191
